Experimental data: ChEMBL document CHEMBL1201862, “PubChem BioAssay data set” (2004)

The compounds below were run on NCI-H322M (assay: NCI anticancer screen, dose series, 48 h).

Q: How did the GI50 turn out when C[N+](CCCl)(CCCl)Cc1cccc2cccc([N+](=O)[O-])c12 was run?
A: The GI50 was inactive: > 100 µM.

Q: With CCOC(=O)N1CCc2cc(OC)c(OC)c3c2c1cc1cc(OC)c(OC)cc13 as the compound, how does the GI50 read?
A: The GI50 was inactive: 7.89 µM.

Q: CCNCCC1(CC)C(=O)NC(=O)NC1=O was tested. Which GI50 did it give?
A: Its GI50 is inactive: > 100 µM.

Q: For COc1ccc(NC=O)c(C(=O)CCNC(C)=O)c1, which GI50 is on record?
A: Its GI50 is inactive: > 100 µM.

Q: With CCN(CC)CCOC(c1cc(OC)ccc1OC)c1ccc2n1-c1ccccc1OC2 (stereo not drawn) as the compound, how does the GI50 read?
A: Its GI50 is inactive: 15.2 µM.

Q: With FC1CCN(C2(c3cccs3)CCCCC2)CC1 as the compound, how does the GI50 read?
A: The GI50 was inactive: > 100 µM.

Q: CCOP(=O)(OCC)c1c(C(=O)OC)cc(=O)[nH]c1-c1ccc(C)cc1 was tested. Which GI50 did it give?
A: Its GI50 is inactive: 22.2 µM.

Q: How did the GI50 turn out when COc1cc(/C=N\c2nc(-c3ccc(NS(=O)(=O)c4ccc(Cl)c(OC)c4)cc3)cs2)ccc1O was run?
A: The GI50 was inactive: 47.6 µM.

Q: CNC(=S)N/N=C(\C)c1cc(OC)c(OC)cc1O was tested. Which GI50 did it give?
A: The GI50 was inactive: > 100 µM.

Q: With CC(=O)OCC1OC(Nn2c(=O)[nH]c3ccccc3c2=O)C(OC(C)=O)C(OC(C)=O)C1OC(C)=O (stereo not drawn) as the compound, how does the GI50 read?
A: The GI50 was inactive: > 100 µM.

Q: Which GI50 does the source give for C1=N\CCNCC/N=C\c2ccc(cc2)OCc2cccc(n2)COc2ccc/1cc2 here?
A: The GI50 was inactive: > 100 µM.

Q: For CN(c1ccccc1)S(=O)(=O)c1ccc([N+](=O)[O-])cc1, which GI50 is on record?
A: The GI50 was inactive: > 100 µM.

Q: Which GI50 does the source give for O=C1C2=Nc3ccccc3C(O)(C(=O)O)N2c2ccccc21 (stereo not drawn) here?
A: The GI50 was inactive: 22.2 µM.

Q: C1OC1CO[C@@H]1CO[C@H]2[C@@H]1OC[C@H]2OCC1CO1 (stereo partly drawn) was tested. Which GI50 did it give?
A: The GI50 was inactive: > 100 µM.

Q: Which GI50 does the source give for Nc1c2ccccc2nc2c1ccc1ncccc12 here?
A: The GI50 was inactive: 15.1 µM.

Q: CC1=NC2(CCCCC2)N(Cl)C(=O)C1SC#N (stereo not drawn) was tested. Which GI50 did it give?
A: The GI50 was inactive: 18.5 µM.

Q: With COC(=O)c1c[nH]cc1CCCCc1c[nH]cc1C(=O)OC as the compound, how does the GI50 read?
A: The GI50 was inactive: > 100 µM.

Q: Which GI50 does the source give for COc1c2c(c3ccccc3c1O)C1C=CC2C1 (stereo not drawn) here?
A: The GI50 was inactive: 17 µM.

Q: How did the GI50 turn out when Cc1cc(C)nc(NS(=O)(=O)c2ccc(Nc3c4ccccc4nc4c(C(=O)N5CCN(CCO)CC5)ccc(Cl)c34)cc2)n1 was run?
A: The GI50 was inactive: 77.8 µM.

Q: Cc1nn(-c2ccccc2)c2c1C(c1cc3ccccc3nc1Cl)NC(=S)N2 (stereo not drawn) was tested. Which GI50 did it give?
A: The GI50 was inactive: > 100 µM.

Q: Which GI50 does the source give for CC/C(N)=N\NC(=O)OC(C)(C)C here?
A: The GI50 was inactive: > 100 µM.

Q: Which GI50 does the source give for CC1(C)C2C=CC1(C)C1(CC2)OCCO1 (stereo not drawn) here?
A: Its GI50 is inactive: > 100 µM.

Q: CSCCCN(CCCSC)CCCSC was tested. Which GI50 did it give?
A: The GI50 was inactive: > 100 µM.

Q: CC1(C)C2CC3C4CC5(Nc6ccccc6C5N41)[C@]3(C)CC2=O (stereo partly drawn) was tested. Which GI50 did it give?
A: The GI50 was inactive: > 50 µM.

Q: Which GI50 does the source give for O=C(NC(Cl)(C(F)(F)F)C(F)(F)F)c1ccc(F)cc1 here?
A: The GI50 was inactive: > 100 µM.

Q: With O[C@H]1[C@H](O)[C@@H](Cn2nnc(-c3ccccc3)c2-c2ccccc2)OCO[C@@H]1Cn1nnc(-c2ccccc2)c1-c1ccccc1 as the compound, how does the GI50 read?
A: Its GI50 is inactive: 7.08 µM.

Q: For COc1ccc(OC)c2c1C=CC(Br)=CC2, which GI50 is on record?
A: The GI50 was active: 0.48 µM.

Q: CC12c3ccccc3C(OC=O)(c3ccccc31)C1(C)c3ccccc3C2(OC=O)c2ccccc21 was tested. Which GI50 did it give?
A: Its GI50 is inactive: > 100 µM.

Q: How did the GI50 turn out when O=C(O)CNC(=O)c1ccc(-c2ccccc2)cc1 was run?
A: Its GI50 is inactive: > 100 µM.

Q: For CC(=O)N1CCC2(c3ccccc3N(C(C)=O)C2c2ccc(O)cc2)C1C(=O)O (stereo not drawn), which GI50 is on record?
A: The GI50 was inactive: > 100 µM.

Q: CN(NC(=O)/C(=C/c1ccc(O)cc1)NC(=O)c1ccccc1)c1ccnc2cc(Cl)ccc12 was tested. Which GI50 did it give?
A: The GI50 was inactive: 20.3 µM.

Q: Which GI50 does the source give for N/C(=N\c1ccc(Cl)cc1)NS(=O)(=O)c1ccc(-c2ccccn2)s1 here?
A: The GI50 was inactive: 18.7 µM.

Q: Cc1cc(NCCCCCCCCNc2cc(C)nc3cc(N)ccc23)c2ccc(N)cc2n1 was tested. Which GI50 did it give?
A: The GI50 was inactive: 21.2 µM.

Q: Cc1cc2c(cc1Cl)SC(c1ccccc1O)NS2(=O)=O (stereo not drawn) was tested. Which GI50 did it give?
A: Its GI50 is inactive: > 100 µM.

Q: For COc1ccc2c(=O)c3c([nH]c2c1)OCC3=O, which GI50 is on record?
A: The GI50 was inactive: > 100 µM.

Q: With COc1cc(/C=C/c2nc(N)nnc2C)cc(OC)c1OC as the compound, how does the GI50 read?
A: The GI50 was inactive: 26.2 µM.

Q: For Clc1ccc(-c2cc(-c3nc4ccccc4[nH]3)no2)cc1, which GI50 is on record?
A: Its GI50 is inactive: 19.3 µM.

Q: CC1(C)NC2C(=O)c3c([nH]c4ccccc34)[C@]3(C)CCC1CC23 (stereo partly drawn) was tested. Which GI50 did it give?
A: The GI50 was inactive: > 100 µM.

Q: COC(=O)c1ccccc1C1CN=NC12Cc1c(C)c3c(c(C)c1C2=O)CCC3 (stereo not drawn) was tested. Which GI50 did it give?
A: Its GI50 is inactive: 21.4 µM.

Q: With CCN1CCC(O)(c2ccc(Oc3ccc(Cl)cc3)cc2)C(C(=O)c2ccc(Oc3ccc(Cl)cc3)cc2)C1 (stereo not drawn) as the compound, how does the GI50 read?
A: Its GI50 is inactive: 14.6 µM.

Q: For CC(C)N(C(=O)C12C3C4C1C1C2C3C41C(=O)N(C(C)C)C(C)C)C(C)C (stereo not drawn), which GI50 is on record?
A: The GI50 was inactive: > 50 µM.

Q: CC(=O)Oc1cc(OC(C)=O)c(OC(C)=O)c2c1CC1C(=O)C3(CCc4ccccc43)C(=O)C1C2 (stereo not drawn) was tested. Which GI50 did it give?
A: Its GI50 is inactive: > 100 µM.

Q: For Cc1[nH]c(=O)nc(N/N=C/c2ccc(O)cc2)c1C(=O)Nc1ccc(Cl)cc1, which GI50 is on record?
A: Its GI50 is inactive: > 100 µM.

Q: Which GI50 does the source give for O=C(Nc1ccc(Cl)cc1)NS(=O)(=O)c1coc2ccccc2c1=O here?
A: The GI50 was inactive: > 10 µM.

Q: O=C(C/N=C(\CN(c1ccccc1)c1ccccc1)Oc1c([N+](=O)[O-])cc([N+](=O)[O-])cc1[N+](=O)[O-])N1CCNCC1 was tested. Which GI50 did it give?
A: Its GI50 is inactive: > 100 µM.

Q: For Nc1ncnc2c1ncn2[C@@H]1C[C@H](NO)[C@@H](O)[C@H]1O, which GI50 is on record?
A: The GI50 was inactive: > 100 µM.

Q: Which GI50 does the source give for Cc1ccc([Se](=C(C(=O)c2ccccc2)C(=O)c2ccccc2)c2ccc(C)cc2)cc1 here?
A: Its GI50 is inactive: 23 µM.

Q: For CCCn1cc2c3c(cccc31)C1C=C(C)CN(C)C1C2 (stereo not drawn), which GI50 is on record?
A: Its GI50 is inactive: 24.5 µM.

Q: How did the GI50 turn out when C1=C2SSC3=CC=C(SSc4ccc(s4)SSC4=CC=C(SSC(=C1)S2)S4)S3 was run?
A: The GI50 was inactive: > 100 µM.

Q: With C1=N\c2ccc(cc2)-c2ccc(cc2)/N=C\c2ccc(cc2)OCc2cccc(n2)COc2ccc/1cc2 as the compound, how does the GI50 read?
A: The GI50 was inactive: > 100 µM.

Q: For COc1ccc(N2C(=O)C3c4[nH]c5cccc(Cl)c5c4C4CCC(C(C)(C)C)CC4C3C2=O)cc1 (stereo not drawn), which GI50 is on record?
A: The GI50 was inactive: > 100 µM.

Q: CC1=C(C#N)S(=O)(=O)c2c(oc(C)c2C)N1 was tested. Which GI50 did it give?
A: The GI50 was inactive: > 100 µM.

Q: How did the GI50 turn out when COc1ccc2c(c1)CC[C@@H]1[C@@H]2CC[C@]2(C)C(=O)/C(=C/c3ccc(C#N)cc3)C[C@@H]12 was run?
A: Its GI50 is inactive: > 100 µM.

Q: COc1ccc2nc(-c3ccccc3)c(=O)[nH]c2c1 was tested. Which GI50 did it give?
A: The GI50 was inactive: > 100 µM.

Q: With C/C=C1/C=CC2c3[nH]c4ccccc4c3CCN2C1 (stereo not drawn) as the compound, how does the GI50 read?
A: The GI50 was inactive: > 400 µM.

Q: How did the GI50 turn out when Cc1n[nH]c(=O)n1/N=C/c1ccc(Cl)cc1 was run?
A: The GI50 was inactive: 86.3 µM.

Q: How did the GI50 turn out when Cc1ccc(Nc2nc(=O)[nH]c(=O)[nH]2)cc1N was run?
A: Its GI50 is inactive: > 100 µM.

Q: How did the GI50 turn out when COc1ccc(/C=C(\Cl)c2ccc(OC)cc2)cc1 was run?
A: Its GI50 is inactive: > 100 µM.

Q: How did the GI50 turn out when CCC(C)c1c(Cl)nc(Cl)nc1Cl (stereo not drawn) was run?
A: Its GI50 is inactive: 10.6 µM.

Q: Which GI50 does the source give for CCOC(=O)c1cc(C2CCN(Cc3ccccc3)C2=O)c(C(=O)/C=C(/C)N)[nH]1 (stereo not drawn) here?
A: The GI50 was inactive: 52.2 µM.

Q: For Cc1ccc(-n2cc(-c3ccc(Cl)cc3)c3c(N/N=C4\SCC(=O)N4C)ncnc32)cc1, which GI50 is on record?
A: The GI50 was inactive: 6 µM.

Q: CCOC(=O)C1Oc2ccc([N+](=O)[O-])cc2C1(C)O (stereo not drawn) was tested. Which GI50 did it give?
A: The GI50 was inactive: > 100 µM.

Q: N#C/C(=C1/Sc2c(nc[nH]c2=O)N1c1ccccc1)c1nc2ccccc2[nH]1 was tested. Which GI50 did it give?
A: The GI50 was inactive: > 100 µM.

Q: CC/C=C/c1cc2cc[nH]c2c2c1C(C)C[C@@H]2C (stereo partly drawn) was tested. Which GI50 did it give?
A: The GI50 was inactive: 47.2 µM.

Q: For O=C(O)CNC(=O)c1c2ccccc2nc2ccccc12, which GI50 is on record?
A: The GI50 was inactive: > 100 µM.

Q: Which GI50 does the source give for CN1CC2=C(OC(N)=C(C#N)C2c2cccs2)/C(=C/c2cccs2)C1 (stereo not drawn) here?
A: The GI50 was inactive: 21.4 µM.

Q: COc1cc2cc(C(=O)N3CC(CCl)c4c3cc([N+](=O)[O-])c3ccccc43)[nH]c2c(OC)c1OC (stereo not drawn) was tested. Which GI50 did it give?
A: The GI50 was inactive: > 91 µM.

Q: For COc1cc(-c2oc3c(OC)c(O)c(OC)c(O)c3c(=O)c2OC)ccc1O, which GI50 is on record?
A: The GI50 was inactive: 65.8 µM.

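Exposure lasted 48 hours, with cells grown in 96-well plates and compounds tested at five concentrations. GI50 marks 50% less growth.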 Active and inactive are the calls of the source. No stated cut-off is given here; in the data, active = GI50 up to about 1.1 µM and inactive = higher.
